According to PubChem BioAssay (NCATS):
Inconclusive results, whose numbers are uncertain, are shown with a selection of clear calls. For some assays here: A potency beside an inconclusive call is a rough fit, not a confirmed value. Calls of active or inactive are those of the source. The call rests on the fitted dose curve; in most records, active means well fitted curve in the direction sought with a large enough effect; inconclusive means small, poorly fitted or top-dose-only effect, or another doubt; inactive means no such curve, though single readings can be large; an effect the other way counts as inactive or inconclusive.

Experiments:
[1] = OV-KATE Cancer Cell Toxicity qHTS against the NCATS CANVASS Library (AID 1347345); further: potency means the concentration at half of the fitted maximal effect
Procedure, shortened: (§1)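 Per well, 1000 cells; exposure 72 h with compound at 11 final concentrations; readout CellTiter-Glo luminescence.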

[2] = HPAF-II Cancer Cell Toxicity qHTS against the NCATS CANVASS Library (AID 1347346); further: potency means the concentration at half of the fitted maximal effect; nearly all actives have a fitted effect of over 55% in size
Procedure, shortened: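 First, HPAF-II cells are plated (1000 cells/well) and held 4 h at 37 degrees C. Next, compounds are pin-transferred as an 11-point series. After 72 h, CellTiter-Glo is added and luminescence measured.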

[3] = UWB1.289 Cancer Cell Toxicity qHTS against the NCATS CANVASS Library (AID 1347347); further: potency means the concentration at half of the fitted maximal effect; nearly all actives have a fitted effect of over 60% in size
Procedure, shortened: as §1

[4] = Panc-1005 Cancer Cell Toxicity qHTS against the NCATS CANVASS Library (AID 1347349); further: nearly all actives have a fitted effect of over 60% in size; further: potency means the concentration at half of the fitted maximal effect
Procedure, shortened: as §1

[5] = COV-362 Cancer Cell Toxicity qHTS against the NCATS CANVASS Library (AID 1347352); further: potency means the concentration at half of the fitted maximal effect
Procedure, shortened: (§2)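 First, 1000 cells go into each well and rest for 4 hours. Next, an 11-point dilution range is pinned in. Plates then incubate 72 hours before CellTiter-Glo addition and luminescence reading.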

[6] = A2780 Cisplatin Sensitive Ovarian Cancer Cell Toxicity qHTS against the NCATS CANVASS Library (AID 1347353); further: potency means the concentration at half of the fitted maximal effect; nearly all actives have a fitted effect of over 60% in size
Procedure, shortened: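 Cells are plated at 750 per well and rest for 4 hours. Compounds are added across eleven concentrations, and incubated 72 hours before ATP is quantified by luminescence.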

[7] = UWB1.289-WTBRCA1 Cancer Cell Toxicity qHTS against the NCATS CANVASS Library (AID 1347354); further: potency means the concentration at half of the fitted maximal effect
Procedure, shortened: as §2

[8] = HPAF-II 24hr Apoptosis Induction qHTS against the NCATS CANVASS Library (AID 1347356)
Procedure, shortened: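 Cells seeded at 500 per well, then compounds pin-transferred in an 11-point concentration series. After 24 hours at 37 degrees C, Caspase-Glo 3/7 was added and luminescence measured following 15 min at room temperature.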

[9] = HEK293 18hr Apoptosis Induction qHTS against the NCATS CANVASS Library (AID 1347357); further: potency means the concentration at half of the fitted maximal effect
Procedure, shortened: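 HEK293 cells (500/well, DMEM + 10% FBS) treated with an 11-point series for 18 h at 37 degrees C. Caspase-3/7 activity read by Caspase-Glo luminescence after 15 min at room temperature.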

[10] = HPAF-II 12hr Apoptosis Induction qHTS against the NCATS CANVASS Library (AID 1347358)
Procedure, shortened: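 Cells plated at 500 per well are dosed with compound and incubated 12 hours at 37 degrees C. Caspase-Glo 3/7 reagent is added and, after 15 min at room temperature, luminescence proportional to caspase activity is measured.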

[11] = HEK293 12hr Apoptosis Induction qHTS against the NCATS CANVASS Library (AID 1347361); further: potency means the concentration at half of the fitted maximal effect
Procedure, shortened: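 HEK293 cells (500/well) were exposed to an 11-point qHTS concentration series for 12 hours at 37 degrees C. Caspase-3/7 activity was then read by DEVD-substrate luciferase luminescence after 15 min at room temperature.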

[12] = KB-8-5-11 Cancer Cell Toxicity qHTS against the NCATS CANVASS Library (AID 1347364); conditions: activity change, negative = toxicity: at 46.1 µM (top of the series); further: potency means the concentration at half of the fitted maximal effect; nearly all actives have a fitted effect of over 75% in size
Procedure, shortened: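 Terse: KB-8-5-11, 500 cells/well, 72 hr, 37C/5% CO2, 11-pt titration, CellTiter-Glo readout; confirmatory runs ± 1uM tariquidar in medium.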

[13] = KB-3-1 Cancer Cell Toxicity qHTS against the NCATS CANVASS Library (AID 1347366); further: potency means the concentration at half of the fitted maximal effect; nearly all actives have a fitted effect of over 75% in size
Procedure, shortened: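 KB-3-1 cells (500/well) in DMEM with 10% FBS were exposed to compounds for 72 h at 37C. Viability was read by CellTiter-Glo luminescence.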

[14] = MCF7 Cancer Cell Toxicity qHTS against the NCATS CANVASS Library (AID 1347369); conditions: activity change, negative = cytotoxicity: at 46 µM (top of the series); further: potency means the concentration at half of the fitted maximal effect
Procedure, shortened: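 MCF7 cells (500/well) were exposed 72 h at 37 °C to compounds in an 11-point series. Viability was read as ATP content by CellTiterGlo luminescence.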

[15] = molecular target: Nuclear receptor subfamily 1 group I member 3 (Homo sapiens) (UniProt Q14994); experiment: qHTS for Constitutive Androstane Receptor (CAR) Antagonist screened against the NCATS CANVASS Library (AID 1347372); further: potency means the concentration at half of the fitted maximal effect
Procedure, shortened: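 Cells were seeded and left 4hr to attach, then received compound at 11 concentrations and 50 nM CITCO. Following 24hr incubation, fluorescence viability and luciferase luminescence were read sequentially.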

[16] = molecular target: Nuclear receptor subfamily 1 group I member 3 (Homo sapiens) (UniProt Q14994); experiment: qHTS for Constitutive Androstane Receptor (CAR) Agonist screened against the NCATS CANVASS Library (AID 1347373);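 further: every well also contained 1.5 µM PK11195 alongside the test compound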
Procedure, shortened: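 Cells were plated and allowed to attach for 4hr, then dosed with compound in an 11-point series alongside 1.5uM PK11195. After 24hr at 37C, viability was measured fluorometrically and CAR-driven CYP2B6 reporter luminescence was recorded.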

[17] = qHTS for Hypoxia signaling pathway (HIF-1) agonists against the NCATS CANVASS Library (AID 1347375); further: potency means the concentration at half of the fitted maximal effect
Procedure, shortened: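 Cells plated and rested 5 h, compounds pinned in DMSO across 11 concentrations, incubated 17 h at 37C, loaded with CCF4-AM for 2 h, fluorescence read at 460 and 530 nm, then CellTiter-Glo luminescence measured for viability and normalization.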

[18] = DH5-alpha competent E. coli microbial cell viability qHTS against the NCATS CANVASS Library (AID 1347377); conditions: viability signal change, negative = cytotoxic: at 46.1 µM (top of the series); further: potency means the concentration at half of the fitted maximal effect
Procedure, shortened: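 Bacteria were dispensed at 0.2 OD, then compounds were pin-transferred. Plates were incubated overnight at 37C, after which BacTiter-Glo was added and luminescence measured 20 min later.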

[19] = qHTS for H2AX Agonists against the NCATS CANVASS Library (AID 1347378); further: potency means the concentration at half of the fitted maximal effect
Procedure, shortened: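 CHO-K1 cells (1000/well, overnight at 37C) exposed to compounds at several concentrations for 3 hr at 37C, 0.76% DMSO final. Lysates read by TR-FRET (phospho-H2AX S139 Eu-cryptate antibody / H2AX-d2 antibody) after 24 hr at room temperature; 665/615 nm ratio.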

[20] = qHTS for Inflammasome Signaling Inhibitors: IL-1-beta AlphaLISA screen against the NCATS CANVASS Library (AID 1347379)
Procedure, shortened: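 Secreted IL-1B from human THP-1 cells quantified by AlphaLISA 16 hr after compound addition (final up to 57.5 uM). A 1 hr compound pretreatment preceded inflammasome activation with 250 ng/mL LPS plus 1.25 mM ATP (final).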

[21] = qHTS for Antimalaria activity screened against the NCATS CANVASS Library (AID 1347380); further: potency means the concentration at half of the fitted maximal effect; nearly all actives have a fitted effect of over 40% in size
Procedure, shortened: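 Compounds are titrated over 11 concentrations onto Dd2 parasite cultures (0.3% parasitemia, 2.5% hematocrit). Growth over 72 h at 37C in low oxygen is measured as SYBR Green DNA fluorescence after lysis.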

[22] = Cytotoxicity qHTS for assessment of Hepg2 cells membrane integrity screened against the NCATS CANVASS Library (AID 1347387); further: potency means the concentration at half of the fitted maximal effect
Procedure, shortened: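 Cells were seeded at 2000 per well and left overnight to attach. Compounds were pin-transferred to give 0.59 nM - 46 uM in an 11-point series and incubated 5 hr at 37C. CytoTox-ONE reagent was added and, after 10 min at room temperature, fluorescence (ex 560, em 590 nm) was read.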

[23] = qHTS assay for small molecule disruptors of mitochondrial membrane potential screened against the NCATS CANVASS Library (AID 1347389); further: potency means the concentration at half of the fitted maximal effect; nearly all actives have a fitted effect of over 60% in size
Procedure, shortened: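 Mitochondrial depolarization in HepG2 cells is scored as a falling aggregate-to-monomer fluorescence ratio after 1 hr compound exposure and 30 min staining with Mito-MPS dye at 37C, each compound tested as an 11-point titration.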

[24] = qHTS for activators of Nrf2/ARE signaling pathway screened against the NCATS CANVASS Library (AID 1347391)
Procedure, shortened: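 Beta-lactamase reporter signal, read as 460 and 530 nm emission under 405 nm excitation after 2 h CCF4 loading, reflected ARE activation in HepG2 cells treated 16 h with an 11-point series.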

[25] = qHTS for activators of dead-cell proteases activity screened against the NCATS CANVASS Library (AID 1347392);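 further: luminescence from protease leaking out of membrane-damaged cells cleaving impermeant substrate; potency means the concentration at half of the fitted maximal effect; rising signal means more cytotoxicity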
Procedure, shortened: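 Cytotoxicity in HepG2 cells was assessed by released protease cleaving AAF-aminoluciferin, with luminescence as signal. Exposure lasted 5 h at 37C across an 11-point series.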

[26] = qHTS for inhibitors of ER calcium dysfunction: SERCaMP assay screened against the NCATS CANVASS Library (AID 1347393); conditions: SH-SY5Y GLuc-SERCaMP (Gaussia luciferase released on ER calcium loss) secretion, thapsigargin, luminescence; series mostly up to 76.6 µM; further: nearly all actives have a fitted effect of over 40% in size; further: potency means the concentration at half of the fitted maximal effect
Procedure, shortened: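 qHTS in SH-SY5Y reporter cells: 16 h compound pretreatment, 4 h thapsigargin, then secreted Gaussia luciferase measured by luminescence.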

[27] = Vero-766 cells viability qHTS against the NCATS CANVASS Library: Counterscreen for Zika virus inhibition assay (AID 1347394); conditions: Vero 766 viability, CellTiter-Glo luminescence, 72 h; activity change, negative = cytotoxic: at 46.1 µM (top of the series)
Procedure, shortened: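 Vero 766 cells (1000/well), without Zika virus, were exposed to compounds for 72 h at 37C. Viability was measured by CellTiter Glo luminescence. Media-only wells served as 100% inhibition.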

[28] = Viability qHTS for inhibitors of the SERCaMP assay screened against the NCATS CANVASS Library (AID 1347400); further: potency means the concentration at half of the fitted maximal effect; nearly all actives have a fitted effect of over 70% in size
Procedure, shortened: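 Seed SH-SY5Y-GLuc SERCaMP MJH297 cells at 1000 per well, incubate 4 h, add compounds across an 11-point range, incubate 48 h at 37C, then add CellTiter-Glo and read luminescence.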

[29] = Redox Reaction Profiling qHTS: Assay Interference Panel against the NCATS CANVASS Library (AID 1347401); further: potency means the concentration at half of the fitted maximal effect
Procedure, shortened: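 Quantitative HTS over an 11-point series was run in HEPES pH 7.3 with 50 mM NaCl, 200 uM DTT and 5 uM resazurin. Initial and 15-min resorufin fluorescence readings were taken.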

[30] = SW1088 Cancer Cell Toxicity qHTS against the NCATS CANVASS Library (AID 1347350); further: potency means the concentration at half of the fitted maximal effect; nearly all actives have a fitted effect of over 75% in size
Procedure, shortened: as §1

[31] = U-118MG Cancer Cell Toxicity qHTS against the NCATS CANVASS Library (AID 1347351)
Procedure, shortened: as §1

[32] = qHTS for inhibitors of Wild type Zika virus screened against the NCATS CANVASS Library (AID 1347396); further: potency means the concentration at half of the fitted maximal effect
Procedure, shortened: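 Protection against wild-type Zika cytopathic effect is measured in African green monkey Vero 766 cells exposed to an 11-point compound series. Surviving cells are quantified by CellTiter Glo luminescence after 72 h.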
Tags describe the fitted curve by direction and shape.

Sequence of UniProt Q14994 (Q14994 whole entry, looked up): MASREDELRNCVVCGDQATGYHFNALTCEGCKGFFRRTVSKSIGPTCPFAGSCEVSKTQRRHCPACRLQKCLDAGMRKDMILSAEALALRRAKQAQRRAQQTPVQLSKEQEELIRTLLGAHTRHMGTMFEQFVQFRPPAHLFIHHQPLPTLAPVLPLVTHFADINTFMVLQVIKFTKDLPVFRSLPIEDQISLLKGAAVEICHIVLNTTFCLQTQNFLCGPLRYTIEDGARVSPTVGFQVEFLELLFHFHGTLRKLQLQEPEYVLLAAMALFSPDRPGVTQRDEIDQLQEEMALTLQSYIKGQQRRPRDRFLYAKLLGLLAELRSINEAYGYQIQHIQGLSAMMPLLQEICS

C=C1C(=O)O[C@H]2C[C@H](C)[C@@H]3CC(=O)C(C)=C3[C@H](O)[C@H]12
Potency [1]: active: 13.3 µM | Potency [2]: active: 13.3 µM | Potency [3]: inconclusive: 5.29 µM [cytotoxic, full curve] | Potency [4]: active: 18.8 µM | Potency [5]: inconclusive: 14.9 µM [cytotoxic, partial curve] | Potency [6]: active: 2.96 µM | Potency [7]: inconclusive: 29.8 µM [cytotoxic, single point] | Potency [8]: inactive | Potency [9]: inconclusive: 23.5 µM [activator, single point] | Potency [10]: inactive | Potency [11]: inconclusive: 18.7 µM [activator, partial curve] | Potency [12]: inconclusive: 37.2 µM [cytotoxic, single point] | Potency [13]: inconclusive: 26.4 µM [cytotoxic, partial curve, poor fit] | Potency [14]: active: 18.6 µM | Potency [15]: inconclusive: 26.3 µM [inhibitor, single point] | Potency [16]: inactive | Potency [17]: inconclusive: 29.8 µM [activator, single point] | Potency [18]: inconclusive: 23.4 µM [rising, partial curve, poor fit] | Potency [19]: active: 17.2 µM | Potency [20]: active: 10.9 µM | Potency [21]: inconclusive: 0.0084 µM [cytotoxic, full curve, poor fit] | Potency [22]: inconclusive: 23.4 µM [rising, single point] | Potency [23]: inconclusive: 37.1 µM [inhibitor, partial curve, poor fit] | Potency [24]: inconclusive: 2.34 µM [activator, full curve] | Potency [25]: inconclusive: 26.3 µM [activator, partial curve, poor fit] | Potency [26]: active: 1.72 µM | Potency [27]: inconclusive: 37.1 µM [cytotoxic, partial curve, poor fit] | Potency [28]: active: 21.4 µM | Potency [29]: inactive

COC12OC1(C13OC1(OC)C(=O)c1cc4cc(C)oc(=O)c4c(O)c1C3O)C(O)c1c(cc3cc(C)oc(=O)c3c1O)C2=O (stereo not drawn)
Potency [1]: inactive | Potency [2]: inconclusive: 23.7 µM [cytotoxic, single point] | Potency [4]: inactive | Potency [30]: active: 18.8 µM | Potency [31]: inactive | Potency [21]: inconclusive: 0.0059 µM [cytotoxic, full curve, poor fit] | Potency [26]: inactive | Potency [32]: inconclusive: 36.9 µM [inhibitor, single point] | Potency [29]: inconclusive: 1.52 µM [activator, partial curve]
